Reference: a collection of fitness landscapes (doi:10.1038/s41467-024-54723-y)
Over roughly 18,000 sequences, “TetR repression strength (sort-seq, GFP reporter)” has its median near 0.23; the highest 2% begin near 0.68. Some of the results follow.

The sequences below were run against TetR (class B, Tn10) (UniProt P04483) (assay: TetR repression strength (sort-seq, GFP reporter) (relative to tetO2 = 1); higher = stronger repression). Details: E. coli.
Method in brief: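 Repression strength is the top bin index plus one minus the read-weighted mean bin, relative to the unaltered operator's value. A low-copy library in E. coli SIG10-MAX randomized eight operator positions between a constitutive promoter and sfGFP, with TetR expressed constitutively; cells grew 5 h at 37 °C in LB with 50 µg/mL chloramphenicol and 10^6 were FACS-sorted into 13 bins that were each Illumina-sequenced. Three independent transformations were averaged, keeping only members with ≥30 reads in all replicates and CV ≤0.5.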

UniProt P04483, sequence (P04483 whole entry): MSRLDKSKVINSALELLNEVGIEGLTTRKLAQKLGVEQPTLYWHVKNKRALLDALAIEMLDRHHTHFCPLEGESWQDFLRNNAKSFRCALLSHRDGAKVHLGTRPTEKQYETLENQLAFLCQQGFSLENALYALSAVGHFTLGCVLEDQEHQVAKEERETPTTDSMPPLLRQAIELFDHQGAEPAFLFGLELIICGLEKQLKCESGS

Sequence	TetR repression strength
TCCCCTCTAGTGAGTGAGA	0.23
TCCCACAGAGTGACGGAGA	0.0886
TCCCTGGGAGTGGTAGAGA	0.221
TCCCGGCAAGTTAGTGAGA	0.0764
TCCCCTTTAGTGCCTGAGA	0.523
TCCCTACTAGTTGTCGAGA	0.289
TCCCCATAAGTAGAAGAGA	0.443
TCCCAGCGAGTGGGTGAGA	0.101
TCCCAGGGAGTAGCTGAGA	0.21
TCCCAGGTAGTGGCGGAGA	0.176
TCCCGGACAGTTACAGAGA	0.677
TCCCGCTAAGTTAATGAGA	0.126
TCCCAGGCAGTCGGGGAGA	0.171
TCCCAGGCAGTCGTGGAGA	0.28
TCCCGAACAGTTTTTGAGA	0.244
TCCCACAAAGTCAGGGAGA	0.104
TCCCAAATAGTTTAAGAGA	0.373
TCCCACCGAGTGGGAGAGA	0.359
TCCCGGTAAGTGGGAGAGA	0.453
TCCCGTGCAGTGAATGAGA	0.276
TCCCTATCAGTTGGCGAGA	0.445
TCCCGGTAAGTCCGCGAGA	0.101
TCCCGGTGAGTAGCCGAGA	0.0389
TCCCGTCCAGTTGCTGAGA	0.143
TCCCAGTGAGTCGTGGAGA	0.25
TCCCTTGCAGTGTGTGAGA	0.206

Sequence	TetR repression strength
TCCCGCTGAGTCAGGGAGA	0.327
TCCCCACTAGTATTCGAGA	0.518
TCCCCAGAAGTATGGGAGA	0.314
TCCCTTTCAGTTATAGAGA	0.649
TCCCGTGGAGTGCTTGAGA	0.0518
TCCCCTTCAGTGAAGGAGA	0.702
TCCCGTTCAGTGGCGGAGA	0.249
TCCCGATGAGTTGCGGAGA	0.194
TCCCGGGAAGTTTGCGAGA	0.17
TCCCAACGAGTGGGGGAGA	0.31
TCCCCGTCAGTTGGTGAGA	0.216
TCCCTTAGAGTGATGGAGA	0.284
TCCCTCTTAGTCAGGGAGA	0.538
TCCCCAATAGTCGAAGAGA	0.347
TCCCCTTCAGTGCTGGAGA	0.149
TCCCCATAAGTGATGGAGA	0.397
TCCCATGAAGTGGATGAGA	0.0204
TCCCGTGGAGTTGGTGAGA	0.246
TCCCCACAAGTAGGAGAGA	0.322
TCCCATCCAGTCGATGAGA	0.0703
TCCCGTTGAGTATGAGAGA	0.232
TCCCGAAGAGTGAATGAGA	0.397
TCCCGCATAGTGTAGGAGA	0.432
TCCCACTGAGTAGCGGAGA	0.242
TCCCCGACAGTTGTTGAGA	0.435
TCCCGAGTAGTGTTCGAGA	0

Sequence	TetR repression strength
TCCCCGCAAGTAAACGAGA	0.426
TCCCGTAGAGTAGTAGAGA	0.234
TCCCAACAAGTGTAAGAGA	0.523
TCCCGGCCAGTTAGAGAGA	0.129
TCCCATTTAGTCTGGGAGA	0.258
TCCCATCCAGTGACAGAGA	0.612
TCCCAGCGAGTCTTCGAGA	0.216
TCCCCGTTAGTGAGAGAGA	0.141
TCCCGATGAGTATAGGAGA	0.309
TCCCCGGGAGTCTCAGAGA	0.476
TCCCGCAGAGTGTCTGAGA	0.216
TCCCCTGAAGTGCAGGAGA	0.269
TCCCGGTGAGTAGCAGAGA	0.336
TCCCGTGGAGTGGTGGAGA	0.227
TCCCTATCAGTTATTGAGA	0.504
TCCCTGGCAGTTGGGGAGA	0.07
TCCCGGGAAGTGCCTGAGA	0.0832
TCCCGGGCAGTATAGGAGA	0.25
TCCCGGCCAGTGAGCGAGA	0.233
TCCCGCCGAGTCCAAGAGA	0.425
TCCCGGGTAGTGTCGGAGA	0.26
TCCCGGGTAGTCGGGGAGA	0.247
TCCCTGCGAGTTGCAGAGA	0.166
TCCCCGTTAGTCCCCGAGA	0.267
TCCCGCTCAGTACGCGAGA	0.104
TCCCCAAGAGTATCTGAGA	0.227

Sequence	TetR repression strength
TCCCAAAGAGTGGTAGAGA	0.164
TCCCAGTTAGTAGTGGAGA	0.341
TCCCGTAAAGTGAGGGAGA	0.105
TCCCTGTCAGTGCTAGAGA	0.514
TCCCGGGCAGTTGCGGAGA	0.261
TCCCGTGTAGTCCCGGAGA	0.163
TCCCTCGGAGTATCGGAGA	0.276
TCCCCATGAGTGAGTGAGA	0.164
TCCCTGGAAGTAGAGGAGA	0.128
TCCCTAAAAGTAGGCGAGA	0.114
TCCCGTCGAGTCAAGGAGA	0.518
TCCCGTGCAGTCAATGAGA	0.171
TCCCGCTAAGTAGAAGAGA	0.202
TCCCCGCTAGTTAGGGAGA	0.253
TCCCGGCAAGTCGGGGAGA	0.249
TCCCTGGCAGTCAGGGAGA	0.291
TCCCGTCCAGTTCTGGAGA	0.281
TCCCGTGCAGTAGAAGAGA	0.254
TCCCCAGGAGTTTGTGAGA	0.418
TCCCAAGAAGTGAAAGAGA	0.2
TCCCGCGAAGTAGGCGAGA	0.224
TCCCAGTTAGTACCGGAGA	0.161
TCCCATACAGTTTATGAGA	0.215
TCCCATCAAGTTGTTGAGA	0.237
TCCCGGCTAGTGCCGGAGA	0.233
TCCCGTCAAGTCCGGGAGA	0.207

Sequence	TetR repression strength
TCCCGGGAAGTAGCTGAGA	0.647
TCCCTCGTAGTGGTAGAGA	0.311
TCCCGGTAAGTCGGAGAGA	0.187
TCCCAGCCAGTTGGTGAGA	0.192
TCCCGGACAGTACAAGAGA	0.104
TCCCGCTAAGTGGCCGAGA	0.191
TCCCGCGTAGTGCGCGAGA	0.23
TCCCGGGAAGTACATGAGA	0.593
TCCCGCAGAGTTGGTGAGA	0.212
TCCCCTGAAGTCAGGGAGA	0.284
TCCCCTGAAGTAGAGGAGA	0.591
TCCCATCCAGTGGCTGAGA	0.338
TCCCGAGCAGTGTAGGAGA	0.0474
TCCCCGGTAGTAATTGAGA	0.0259
TCCCCGAGAGTAGAAGAGA	0.461
TCCCGCGGAGTCAGCGAGA	0.0334
TCCCGTCTAGTTAACGAGA	0.368
TCCCGCGCAGTGTTGGAGA	0.194
TCCCGGAAAGTTCCAGAGA	0.201
TCCCGCCCAGTTTGTGAGA	0.19
TCCCGGAAAGTATTGGAGA	0.352
TCCCTGTGAGTTACAGAGA	0.348
TCCCGAATAGTCGTAGAGA	0.207
TCCCACATAGTGCACGAGA	0.194
TCCCCTGGAGTGGAGGAGA	0.258
TCCCTGAGAGTGTAGGAGA	0.107
